Data on 153 variants can be found in a collection of fitness landscapes (doi:10.1126/science.1257360).

The list shows a part of the results.

The chains are these.
B1: PhoQ; a variant is named by its letters at X, in order, P23837 (parent)
chain: MKKLLRLFFPLSLRVRFLLATAAVVLVLSLAYGMVALIGYSVSFDKTTFRLLRGESNLFYTLAKWENNKLHVELPENIDKQSPTMTLIYDENGQLLWAQRDVPWLMKMIQPDWLKSNGFHEIEADVNDTSLLLSGDHSIQQQLQEVREDDDDAEMTHSVAVNVYPATSRMPKLTIVVVDTIPVELKSSYMVWSWFIYVLSANLLLVIPLLWVAAWWSLRPIEALAKEVRELEEHNRELLNPATTRELTSLVRNLNRLLKSERERYDKYRTTLTDLTHSLKTPLXXLQXXLRSLRSEKMSVSDAEPVMLEQISRISQQIGYYLHRASMRGGTLLSRELHPVAPLLDNLTSALNKVYQRKGVNISLDISPEISFVGEQNDFVEVMGNVLDNACKYCLEFVEISARQTDEHLYIVVEDDGPGIPLSKREVIFDRGQRVDTLRPGQGVGLAVAREITEQYEGKIVAGESMLGGARMEVIFGRQHSAPKDE

In the test the parent is B1. Description: enrichment ratio after two sorts for PhoP signalling (ratio (wild type AVST 3.29)); higher = more functional. To be noted: with PhoP (E. coli).
In the case of WSYT, the enrichment ratio is at most 0.25.

Turning to LYLK, the enrichment ratio is at most 0.25.

Take ITQE: the enrichment ratio was at most 0.25.

On to FDAI, for which the enrichment ratio is at most 0.25.

On to YWSR, for which the enrichment ratio is at most 0.25.

Regarding EASG, the enrichment ratio was at most 0.25.

Consider MSCA, for which the enrichment ratio is 0.541.

Consider VWRA, for which the enrichment ratio is at most 0.25.

For the variant QAFV, the enrichment ratio is at most 0.25.

As to PLYP, the enrichment ratio is at most 0.25.

For the variant DFNK, the enrichment ratio is at most 0.25.

Turning to LQGA, the enrichment ratio is at most 0.25.

TIIY: the enrichment ratio was at most 0.25.

Consider QEKA, for which the enrichment ratio was at most 0.25.

For the variant PCWA, the enrichment ratio was at most 0.25.

As to HTMP, the enrichment ratio is at most 0.25.

For the variant HVWS, the enrichment ratio was at most 0.25.

Take RRYF: the enrichment ratio is at most 0.25.

In the case of SLVW, the enrichment ratio is at most 0.25.

With HYCA, the enrichment ratio is at most 0.25.

On to QTHI, for which the enrichment ratio is at most 0.25.

Regarding ETMF, the enrichment ratio was at most 0.25.

In the case of HHSL, the enrichment ratio is at most 0.25.

As for RCAC, the enrichment ratio was at most 0.25.

For the variant GFKS, the enrichment ratio was at most 0.25.

With HIPW, the enrichment ratio is at most 0.25.

Regarding AHIG, the enrichment ratio was at most 0.25.

Take IGCM: the enrichment ratio was 1.02.

Turning to AQGD, the enrichment ratio is at most 0.25.

For WHWK, the enrichment ratio is at most 0.25.

Consider SMGH, for which the enrichment ratio was found to be 1.91.

Consider QLRM, for which the enrichment ratio is at most 0.25.

Regarding QEIM, the enrichment ratio is at most 0.25.

Take RKKN: the enrichment ratio is at most 0.25.

Turning to FMYI, the enrichment ratio was at most 0.25.

With PWIK, the enrichment ratio is at most 0.25.

As for KAAS, the enrichment ratio is at most 0.25.

In the case of YGKI, the enrichment ratio is at most 0.25.

With DFMN, the enrichment ratio was at most 0.25.

Regarding TVHH, the enrichment ratio is at most 0.25.

ICAK: the enrichment ratio is at most 0.25.

Consider DYEF, for which the enrichment ratio was at most 0.25.

Consider WMVW, for which the enrichment ratio was at most 0.25.

FWPH: the enrichment ratio is at most 0.25.

With VDSC, the enrichment ratio is at most 0.25.

YRVT: the enrichment ratio is at most 0.25.

Regarding AFSW, the enrichment ratio was determined as 0.44.

For LKDW, the enrichment ratio was at most 0.25.

For WWVS, the enrichment ratio was at most 0.25.

As to EDQM, the enrichment ratio was at most 0.25.

On to DKYN, for which the enrichment ratio was at most 0.25.

Regarding KASF, the enrichment ratio is at most 0.25.

Regarding TNVL, the enrichment ratio is at most 0.25.

PYAK: the enrichment ratio was at most 0.25.

SEAM: the enrichment ratio came to 15.9.

Consider HHTL, for which the enrichment ratio is at most 0.25.

SKSY: the enrichment ratio worked out at 3.07.

For the variant LWAF, the enrichment ratio is at most 0.25.

WIRA: the enrichment ratio was at most 0.25.

Consider PKFC, for which the enrichment ratio is at most 0.25.

As to QHAF, the enrichment ratio was at most 0.25.

Regarding ATLR, the enrichment ratio worked out at 9.35.

Turning to QNPP, the enrichment ratio was at most 0.25.

Consider QEYF, for which the enrichment ratio is at most 0.25.

For the variant TCYP, the enrichment ratio is at most 0.25.

For the variant AKWF, the enrichment ratio was at most 0.25.

With STSV, the enrichment ratio turned out to be 9.12.

On to TQVY, for which the enrichment ratio stood at 7.6.

With FCGT, the enrichment ratio was at most 0.25.

Regarding MSVE, the enrichment ratio was at most 0.25.

Consider TYDE, for which the enrichment ratio is at most 0.25.

For YKVE, the enrichment ratio is at most 0.25.

Consider APAI, for which the enrichment ratio is at most 0.25.

On to SKRP, for which the enrichment ratio is at most 0.25.

Turning to IYKF, the enrichment ratio was at most 0.25.

Consider TQPW, for which the enrichment ratio was at most 0.25.

As for INTH, the enrichment ratio is at most 0.25.

Consider IYDQ, for which the enrichment ratio was at most 0.25.

Take TLTS: the enrichment ratio stood at 7.02.

Take DPVP: the enrichment ratio was at most 0.25.

For RRKY, the enrichment ratio was at most 0.25.

GRTP: the enrichment ratio was at most 0.25.

In the case of FIKW, the enrichment ratio is at most 0.25.

Consider RVKL, for which the enrichment ratio was at most 0.25.

For HMQP, the enrichment ratio is at most 0.25.

Turning to YSNE, the enrichment ratio is at most 0.25.

On to TYPA, for which the enrichment ratio is at most 0.25.

Consider TLMT, for which the enrichment ratio is 1.03.

Consider NISL, for which the enrichment ratio turned out to be 0.771.

As for YNHD, the enrichment ratio was at most 0.25.

In the case of MCRH, the enrichment ratio was at most 0.25.

Take GKQI: the enrichment ratio was at most 0.25.

Regarding SQTF, the enrichment ratio came out at 4.85.

Take HLNL: the enrichment ratio came out at 2.18.

As for GENL, the enrichment ratio was at most 0.25.

Regarding KGQR, the enrichment ratio was at most 0.25.

DLAP: the enrichment ratio was at most 0.25.

With PAGA, the enrichment ratio was at most 0.25.

As for NQCG, the enrichment ratio was at most 0.25.

Take MMCM: the enrichment ratio is at most 0.25.

With QFFN, the enrichment ratio is at most 0.25.

Consider QGAN, for which the enrichment ratio was at most 0.25.

Consider FKVD, for which the enrichment ratio is at most 0.25.

Take QMDP: the enrichment ratio is at most 0.25.

Turning to ECVK, the enrichment ratio is at most 0.25.

Take AMRF: the enrichment ratio was at most 0.25.

Take VDET: the enrichment ratio was at most 0.25.

For YMSH, the enrichment ratio is at most 0.25.

Consider NMYM, for which the enrichment ratio was at most 0.25.

As for AMAQ, the enrichment ratio turned out to be 12.1.

For IVVW, the enrichment ratio is at most 0.25.

For the variant TFSC, the enrichment ratio came to 7.99.

Regarding TDVI, the enrichment ratio amounted to 11.8.

Consider AISR, for which the enrichment ratio is 3.71.

With PVCP, the enrichment ratio was at most 0.25.

For the variant PGFV, the enrichment ratio is at most 0.25.

With TYYM, the enrichment ratio is at most 0.25.

For the variant TFKD, the enrichment ratio is at most 0.25.

Consider DYRS, for which the enrichment ratio was at most 0.25.

On to VMQN, for which the enrichment ratio is at most 0.25.

ASAR: the enrichment ratio is at most 0.25.

For GTAV, the enrichment ratio was at most 0.25.

In the case of YMAY, the enrichment ratio was at most 0.25.

With TYSY, the enrichment ratio is at most 0.25.

In the case of YMED, the enrichment ratio was at most 0.25.

For the variant TLLF, the enrichment ratio was at most 0.25.

For the variant QCQP, the enrichment ratio was at most 0.25.

Turning to GHCW, the enrichment ratio was at most 0.25.

Turning to VRDA, the enrichment ratio was at most 0.25.

As for QEIF, the enrichment ratio was at most 0.25.

In the case of YYRC, the enrichment ratio is at most 0.25.

Consider SKIR, for which the enrichment ratio was at most 0.25.

Take LQSK: the enrichment ratio was at most 0.25.

As to YAYW, the enrichment ratio is at most 0.25.

In the case of HFPD, the enrichment ratio was at most 0.25.

PSAG: the enrichment ratio is at most 0.25.

Turning to IYFF, the enrichment ratio is at most 0.25.

Take KSHL: the enrichment ratio was at most 0.25.

On to DRMQ, for which the enrichment ratio was at most 0.25.

Consider HELQ, for which the enrichment ratio is at most 0.25.

For the variant FRDA, the enrichment ratio is at most 0.25.

Consider QRDC, for which the enrichment ratio was at most 0.25.

With WYID, the enrichment ratio was at most 0.25.

As to TMVW, the enrichment ratio is at most 0.25.

As to FINY, the enrichment ratio is at most 0.25.

Consider DYAW, for which the enrichment ratio was at most 0.25.

Turning to FGML, the enrichment ratio stood at 22.9.

Take TYQE: the enrichment ratio was at most 0.25.

Regarding IQHT, the enrichment ratio was at most 0.25.

As for WPQY, the enrichment ratio is at most 0.25.

Take KTQG: the enrichment ratio is at most 0.25.

Consider AHAW, for which the enrichment ratio is at most 0.25.

Consider SIPK, for which the enrichment ratio was at most 0.25.
